# Results published in the supplement of paper PMC3334620.
# In all, about 33,000 sequences were measured (“E-score (-0.5 to 0.5)”: median about -0.012, highest 2% from about 0.29 on). Some of the results follow.
# Molecular target: T1, Ybr033w (UniProt P38073)
# T1 sequence: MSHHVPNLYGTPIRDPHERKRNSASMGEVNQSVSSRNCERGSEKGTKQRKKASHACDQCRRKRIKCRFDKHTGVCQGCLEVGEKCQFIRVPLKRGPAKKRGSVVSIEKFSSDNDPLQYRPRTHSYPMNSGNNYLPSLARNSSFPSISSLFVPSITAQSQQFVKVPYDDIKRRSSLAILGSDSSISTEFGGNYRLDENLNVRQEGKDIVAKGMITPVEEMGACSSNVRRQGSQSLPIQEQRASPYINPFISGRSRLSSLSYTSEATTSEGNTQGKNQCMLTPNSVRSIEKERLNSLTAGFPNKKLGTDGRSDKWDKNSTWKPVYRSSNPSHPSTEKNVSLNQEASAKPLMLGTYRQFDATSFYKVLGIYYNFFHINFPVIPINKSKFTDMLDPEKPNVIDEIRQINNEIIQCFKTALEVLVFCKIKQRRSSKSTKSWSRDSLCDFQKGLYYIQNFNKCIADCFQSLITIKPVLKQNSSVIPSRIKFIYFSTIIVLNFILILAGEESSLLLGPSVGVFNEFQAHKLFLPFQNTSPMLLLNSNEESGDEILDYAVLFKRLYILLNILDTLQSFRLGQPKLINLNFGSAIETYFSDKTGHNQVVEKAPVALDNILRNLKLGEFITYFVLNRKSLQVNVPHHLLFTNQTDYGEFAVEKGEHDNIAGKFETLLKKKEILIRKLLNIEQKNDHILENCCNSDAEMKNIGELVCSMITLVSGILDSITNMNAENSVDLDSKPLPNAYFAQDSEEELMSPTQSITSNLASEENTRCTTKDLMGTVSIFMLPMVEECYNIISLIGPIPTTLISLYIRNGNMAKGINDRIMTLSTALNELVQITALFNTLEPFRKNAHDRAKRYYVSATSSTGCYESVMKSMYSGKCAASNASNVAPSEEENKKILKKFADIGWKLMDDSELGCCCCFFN
# Assay: PBM E-score (8-mer binding enrichment) (E-score (-0.5 to 0.5)); higher = stronger / more preferred TF binding; most listed sequences are background and not binding sites
# Details: protein concentration: 200 nM; construct: GST-full length
# Description: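 Universal 'all 10-mer' protein binding microarrays (Agilent AMADID 015681) probed with GST-tagged S. cerevisiae TFs (full-length or DBD) made by in vitro transcription/translation (PURExpress), about 100-200 nM. Bound TF was detected with fluorescent anti-GST. Each ungapped 8-mer (which stands for itself and its reverse complement) is scored by the PBM enrichment score (E-score), a modified Wilcoxon-Mann-Whitney statistic from -0.5 to +0.5, computed with the Universal PBM Analysis Suite. Scale: above 0.35 generally sequence-specific binding.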
row,Sequence,PBM E-score
1,CGGAACAG,0.127
2,AAGTACGA,0.00485
3,GGGACGGA,-0.252
4,AGTGCTCC,-0.213
5,CGAACCAC,-0.13
6,AACCGATT,0.0995
7,GTAAATCA,0.225
8,AAAATGTT,0.224
9,GCTGGACC,-0.178
10,GAGTAATC,0.132
11,ATGTATCA,0.193
12,AGAATCAG,0.0763
13,ACAGTAAA,0.178
14,AAGGGCAG,-0.151
15,CGACTTAC,-0.0431
16,GGATTGGA,0.128
17,GGCAATTA,0.182
18,GAGTGACC,-0.142
19,ACGAGTGC,-0.0558
20,ACTAAACC,0.033
21,CCCACCTA,-0.215
22,ATCGGCTA,-0.00877

row,Sequence,PBM E-score
1,TATAACGA,0.157
2,CAGAATCC,0.0131
3,CCGTTGAA,-0.0738
4,CATATAGC,0.119
5,CGCCACCA,-0.206
6,ATGGTTAC,0.142
7,GCGTAACC,-0.195
8,GTCGCCAC,-0.25
9,AAGTAAAC,0.146
10,ATGGATAC,0.106
11,AAACAAAG,0.118
12,TCTGGTAA,0.133
13,CCACACCA,0.109
14,GAGAGGCA,-0.245
15,AGGCACCG,-0.199
16,AGAACTCT,0.0753
17,GTACCGAC,-0.275
18,CGTGGCAA,-0.182
19,TCATTTAA,0.121
20,CGATAGTC,0.0638
21,ATACCGGC,-0.0263
22,CTGTTTAA,0.145

row,Sequence,PBM E-score
1,AATCGCAA,0.186
2,TAAGCTAA,0.16
3,AGTACGGG,-0.0131
4,CACATCTG,-0.129
5,CTTTCGGC,-0.167
6,CCTTCGTA,-0.0832
7,CTCTTCCA,0.0449
8,ACATTATA,0.148
9,GCTAATAC,0.146
10,CACGGGGA,-0.121
11,ATTACAAG,0.18
12,GACAAGTC,-0.0919
13,ATGAATCA,0.147
14,ATAACGGG,0.0594
15,TTGATAAA,0.368
16,CCGTATCA,-0.107
17,CAGCGAAA,-0.0299
18,AGGACGCC,-0.202
19,CTAATCAA,0.23
20,CGTCTAAC,-0.142
21,ATTAAGGC,0.147
22,CACTTTAC,0.122

row,Sequence,PBM E-score
1,ATGGGGTG,-0.195
2,GGTTACGA,-0.0794
3,GTGGCCTA,-0.276
4,CCCTTTCA,-0.19
5,GGTCCCAC,-0.279
6,GGGTGGCA,-0.141
7,CCAGGCGG,-0.17
8,CGACCCGA,-0.239
9,AAGAATGT,0.104
10,AGACGCGC,-0.107
11,AGGTCGAA,-0.168
12,CTGCAGGA,0.103
13,CATACACG,0.0375
14,CCATAAAC,-0.0866
15,GTAAGCGA,0.145
16,AGGCGGTA,-0.204
17,CGAGCTCA,-0.192
18,CAGGTAAG,-0.121
19,AATAGCGT,0.216
20,GAATGACA,0.0228
21,TCCGAGAA,0.142
22,ATTGCATA,0.202

row,Sequence,PBM E-score
1,ATGATGCA,0.146
2,AACACGAG,-0.00719
3,CCGCAGAG,-0.281
4,AAGCATGG,-0.18
5,ACACAAAT,0.185
6,AGCTAACC,-0.123
7,ACTGATAT,0.0341
8,CGCTACCC,-0.0713
9,CAACACTG,-0.031
10,CGGCGATA,0.048
11,AGTACAAA,0.114
12,CGTTCAGA,-0.0779
13,AAACTGCC,0.151
14,CGATAACA,0.154
15,GCTACACC,-0.2
16,ACACGCGG,-0.012
17,ATATAGCA,0.138
18,CAAACCAA,0.0461
19,ACATGTAG,0.194
20,GCCTGGAA,0.009
21,GATCGGAC,0.129
22,GTTACCCA,-0.119
